Assay results: patent US10696615B2, “Prenylated hydroxystilbenes” (The University of Sydney, priority 2011, dated 2020)

Test system: 14 bacterial strains (11 ATCC strains and 3 clinical isolates)
Assay: MIC screening, broth microdilution (CLSI)
Format: cell-based
Conditions: for antibacterial activities: result in words
Excerpt: C. […] C. […] 2.5. […] 2.6. […] C. […] 3. Results 3.1. MIC Summary Table

Row | SMILES | rank of potency (MIC) | antibacterial activities
1 | COc1cc(/C=C/c2cc(O)cc(OC)c2CC=C(C)C)ccc1O [USYDS1, (E)-2-(3-methyl-2-buten-1-yl)-4′,5-dihydroxy-3,3′-dimethoxystilbene] | USYDS1>USYDS2>ethanolic extract of propolis | moderate antibacterial activities
2 | COc1cc(/C=C/c2cc(O)cc(OCC=C(C)C)c2)ccc1O [USYDS2, (E)-3-(3-methyl-2-butenyloxy)-4′,5-dihydroxy-3′-methoxystilbene] | USYDS1>USYDS2>ethanolic extract of propolis | moderate antibacterial activities
